Several values for one entry are separate records, joined by “and”; a condition that tells them apart may be missing. Equal entries are not always repeated. The list shows a part of the results. Shown are side measurements of this screen, not its main read-out; they come without a call. The list favours compounds with an active or inconclusive main result.

This experiment in a line: inhibitors of triacylglycerol accumulation, primary screen, cell-based, uHTS, fluorescence, H9c2 (AID 651582). The note with it: H9c2 cells, Nile Red lipid (TAG) fluorescence; measured here:; at 12.5 µM; cells loaded with 200 µM oleic acid.
On to `O=C(c1ccc(F)cc1F)N1CCCN(c2nc(-c3ccccc3)ns2)CC1`, for which the DAPI nuclei signal change (viability), lower = more cytotoxic is -21.3%. The result for `CC(=O)O[C@H]1C[C@@]2(C)[C@@H](C[C@@H](O)[C@H]3[C@@]4(C)CC[C@@H](O)[C@@H](C)[C@@H]4CC[C@@]32C)/C1=C(\CCC=C(C)C)C(=O)O` reads -16.2%. For `COc1ccc(Cl)cc1-c1cc(C(=O)NCC2CCCCC2)[nH]n1`, the DAPI nuclei signal change (viability), lower = more cytotoxic came out at 1.33%. Turning to `COc1ccc(-c2cc(C(=O)Nc3cc(OC)cc(C(=O)Nc4cccc(C(F)(F)F)c4)c3)[nH]n2)cc1`, the DAPI nuclei signal change (viability), lower = more cytotoxic was -18.3% and -37.8%. For `CN(Cc1ccc(Cl)cc1)C(=O)CCl`, the DAPI nuclei signal change (viability), lower = more cytotoxic was -23.8%. Regarding `O=C(CCl)N=c1sccn1Cc1cccc2ccccc12`, the DAPI nuclei signal change (viability), lower = more cytotoxic stood at 2.79%.

As to `CCC(=O)NC(c1ccc(Cl)cc1Cl)c1ccc2cccnc2c1O` (stereo not drawn), the DAPI nuclei signal change (viability), lower = more cytotoxic is -46.7%. On to `O=C(Nc1sc2c(c1-c1nc3ccccc3[nH]1)CCCC2)C1CCCC1`, for which the DAPI nuclei signal change (viability), lower = more cytotoxic stood at 50.4%. As for `O=C1Nc2ccc(Br)cc2/C1=N\N=C\C1=C(N2CCOCC2)C(=C/c2ccccc2)/CC1`, the figure is -2.58%; as for `COc1cc(NC(=O)c2nccn2C)cc(C(=O)Nc2cccc(C(F)(F)F)c2)c1`, -41.1%. Consider `COc1cc(/C=C2/SC(=Nc3ccc(O)cc3)NC2=O)ccc1O`, for which the DAPI nuclei signal change (viability), lower = more cytotoxic is -31.1%. As to `Cn1nnnc1N=N/C(=N/Nc1ccccc1)c1ccccc1`, the DAPI nuclei signal change (viability), lower = more cytotoxic was -19.7%. For the compound `COc1ccc2cc3cc(C(=O)NCCc4ccc(OC)c(OC)c4)oc3nc2c1`, the DAPI nuclei signal change (viability), lower = more cytotoxic was 4.12%. The result for `N#Cc1cn(-c2ccccc2)nc1-c1ccc2c(c1)OCCO2` reads -8.24%. For `CC1=C([N+](=O)[O-])C(c2ccccc2)C2=C(N1)c1ccccc1C2=O` (stereo not drawn), the DAPI nuclei signal change (viability), lower = more cytotoxic was -29.8%.

For the compound `CCOC(=O)Nc1ccc2c(c1)C(=NNC(=S)NC)c1ccccc1-2`, the DAPI nuclei signal change (viability), lower = more cytotoxic is -41.9%. Take `CC(=O)c1ccc(-c2cnc3c(NC=O)cc(-c4ccc(C(=O)NC5CC5)cc4)cn23)cc1`: the DAPI nuclei signal change (viability), lower = more cytotoxic was -32.7%. In the case of `CC(C)CCCCCCCCCCCCC(=O)NCC(=O)NC1C(O)C(O)C(Nc2ncnc3nc[nH]c23)OC1C(O)CO` (stereo not drawn), the DAPI nuclei signal change (viability), lower = more cytotoxic is -45.8%. With `CC1(C)Cc2cccc(OCC(=O)Nc3ccc(OCC(N)=O)cc3)c2O1`, the DAPI nuclei signal change (viability), lower = more cytotoxic was -39.4%.

`NC(N)=Nc1ccc(C=C2C=Cc3ccccc32)cc1`: the DAPI nuclei signal change (viability), lower = more cytotoxic is -24.4%. As for `CC(C)N=C(NS(=O)(=O)c1ccccc1)C(Cl)(Cl)Cl`, the figure is -28.7%; as for `CC(C)Oc1ccc(/C=N/NC(=O)C(CSCc2ccccc2)NC(=O)c2ccc([N+](=O)[O-])cc2)cc1` (stereo not drawn), -30.8%. With `C=C(C)COc1ccc(-c2n[nH]c(C)c2-c2ccc(OC)c(OC)c2)c(O)c1`, the DAPI nuclei signal change (viability), lower = more cytotoxic is -33.8%. For `Cc1ccc(NC(=S)N(CCCN2CCCC2)Cc2cccn2Cc2ccc(Cl)cc2)cc1Cl`, the DAPI nuclei signal change (viability), lower = more cytotoxic is -23.6%.

For `CCO[C@@H]1OC(C(=O)N2CCN(Cc3ccccc3)CC2)=C[C@H](c2ccc(C(F)(F)F)cc2)[C@H]1CCCO`, the DAPI nuclei signal change (viability), lower = more cytotoxic was -0.993%.

As for `CCN(CC)CCn1c(SCC(=O)Nc2cccc(OC)c2)nc2c(sc3ccccc32)c1=O`, the DAPI nuclei signal change (viability), lower = more cytotoxic was -13.2%.

For the compound `CC(C)N(C(=O)[C@H]1C[C@H](CC(=O)NCc2cccc(C(F)(F)F)c2)C(=O)N2CCc3c([nH]c4ccc(Cl)cc34)[C@]12C)C(C)C`, the DAPI nuclei signal change (viability), lower = more cytotoxic was -16.5%. With `CC(=O)Nc1ccc(CNc2ncnc3ccc(-c4c(C)noc4C)cc23)cc1`, the DAPI nuclei signal change (viability), lower = more cytotoxic was -6%. For `Cc1ccc(Nc2nc(N)nc(-c3oc4ccccc4c3C)n2)cc1`, the DAPI nuclei signal change (viability), lower = more cytotoxic was -26.5%. With `C=CCn1c(N)c(C(=O)Nc2ccc(C)c(C)c2)c2nc3ccccc3nc21`, the DAPI nuclei signal change (viability), lower = more cytotoxic was -8.07%.

Take `COc1ccc(N=Nc2ccc(O)c3ncccc23)cc1`: the DAPI nuclei signal change (viability), lower = more cytotoxic was -42.2%. With `CCOC(=O)c1cc(-c2ccncc2)nc2c1c(C)nn2-c1ccccn1`, the DAPI nuclei signal change (viability), lower = more cytotoxic was determined as 3.74%. Consider `O=C(Nc1cccc(NC(=O)c2cccs2)c1)c1ccc([N+](=O)[O-])o1`, for which the DAPI nuclei signal change (viability), lower = more cytotoxic is -32.1%.

Turning to `COc1ccc(-n2nc(C(=O)Nc3ccc(OC)c(OC)c3)c3c4ccccc4n(C)c3c2=O)cc1`, the DAPI nuclei signal change (viability), lower = more cytotoxic is -36.2%. The result for `CC(C)(C)OC(=O)N1CCC(CC2CC(c3ccc(Cl)cc3)=NO2)(C(=O)NCC2CCCCC2)CC1` (stereo not drawn) reads -46.5%; that for `Cc1ccc(S(=O)(=O)NC(=O)Nc2ccc(N(C)C)cc2)cc1`, -21%; that for `COc1ccc(C(=O)Nc2ccc(C(=O)Nc3cccc(C)c3)cc2)cc1`, -35.9%. On to `Clc1cccc(Nc2nc(-c3ccncc3)nc3ccccc23)c1`, for which the DAPI nuclei signal change (viability), lower = more cytotoxic was -20.3%. As for `O=C(NC(=S)N(Cc1ccccc1)Cc1ccccc1)C1CCCCC1`, the figure is -24.8%; as for `COc1cc(C#Cc2c(-c3cncn3C)n(C)c3ccc(-c4ccc5[nH]ccc5c4)cc23)cc(OC)c1`, -1.09%. For `CCN(CC)c1ccc(-c2nn3c(-c4n[nH]c5c4CCC5)nnc3s2)cc1`, the DAPI nuclei signal change (viability), lower = more cytotoxic turned out to be 9.74%. The result for `COc1cc(OC)c2c(-c3ccccc3)cc(=O)oc2c1C(CCN1CCCCC1)c1ccc(N(C)C)cc1` (stereo not drawn) reads -38.9%. Turning to `Cc1ccc(CC2(OCCN(C)C)CCC(C(C)(C)C)CC2)cc1` (stereo not drawn), the DAPI nuclei signal change (viability), lower = more cytotoxic is -28.5%. Turning to `COc1cc2ccccc2cc1C(=O)Nc1sc2c(c1C(N)=O)CCN(C(C)C)C2`, the DAPI nuclei signal change (viability), lower = more cytotoxic was determined as 69.2%. In the case of `C#CCN(C[C@@H]1[C@@H](OC(=O)NCC2CCCCC2)[C@@H](OC(=O)NCC2CCCCC2)CN(C(=O)OC(C)C)N1C(=O)OC(C)C)S(=O)(=O)c1ccc(C)cc1`, the DAPI nuclei signal change (viability), lower = more cytotoxic was -16.1%. As to `CCN1CCN(Cc2ccc(NC(=O)c3ccc(C)c(NC(=O)c4cc(-c5ccc(Br)cc5)n[nH]4)c3)cc2C(F)(F)F)CC1`, the DAPI nuclei signal change (viability), lower = more cytotoxic was -5.41%. As for `CCOC(=O)/C(=N\Nc1ccc(Cl)cc1)c1csc(Nc2ccccc2)n1`, the DAPI nuclei signal change (viability), lower = more cytotoxic was -7.07%. For the compound `Cc1ccsc1-c1nc(C(N)=O)c2[nH]c(=O)n(-c3ccc(Cl)cc3)c2n1`, the DAPI nuclei signal change (viability), lower = more cytotoxic is -24.1%. Take `CCOc1cc(N2CCOCC2)c(OCC)cc1NC(=O)CC12CC3CC(CC(C3)C1)C2`: the DAPI nuclei signal change (viability), lower = more cytotoxic is -13.8%. In the case of `CCOC(=O)c1c(CN2CCNCC2)nc2ccc(Cl)cc2c1-c1ccccc1`, the DAPI nuclei signal change (viability), lower = more cytotoxic is -33.1%.

Regarding `CN(C)CCCn1c(SCC(=O)Nc2nc(-c3cccc(Br)c3)cs2)nc2ccccc2c1=O`, the DAPI nuclei signal change (viability), lower = more cytotoxic is -0.52%. With `CCOC(=O)c1cc(CC)sc1NC(=O)c1cc([N+](=O)[O-])ccc1N1CCOCC1`, the DAPI nuclei signal change (viability), lower = more cytotoxic is -30.6%. On to `O=C1CCCC2=C1C1(CCCC1)N=C(Nc1nc3cc(-c4ccccc4)ccc3o1)N2`, for which the DAPI nuclei signal change (viability), lower = more cytotoxic was -16.9%.

Regarding `O=C(Nc1cccc(-c2csc(Nc3ccc(Cl)cc3)n2)c1)c1cccc(C(F)(F)F)c1`, the DAPI nuclei signal change (viability), lower = more cytotoxic was -7.06%. Regarding `COC(=O)[C@]1(CC(C)C)N[C@H](c2ccc(-c3ccc(F)cc3)cc2)[C@@H]2C(=O)N(C)C(=O)[C@@H]21`, the DAPI nuclei signal change (viability), lower = more cytotoxic was 3.8%.

On to `COc1cc(CC(=O)OCC(=O)c2ccc3c(c2)OCCO3)cc(OC)c1OC`, for which the DAPI nuclei signal change (viability), lower = more cytotoxic was -31%. `CCCCNc1c(-c2ccc(-c3ccc(C(C)=O)cc3)c(OC)c2)nc2cc(C)ccn12`: the DAPI nuclei signal change (viability), lower = more cytotoxic turned out to be 41.5%.

As for `Nc1nc(CCl)nc(Nc2ccc3ccccc3c2)n1`, the DAPI nuclei signal change (viability), lower = more cytotoxic is -41.8%.

For the origin of these results see PubChem BioAssay AID651582 (Sanford-Burnham Center for Chemical Genomics, 2012).
